# Test results: the supplement of paper PMC8728848
# The list shows a part of the results.
# B1: SP16665A-bot-344-23-344 (Bacteroides ovatus) (protein)
# chain: SDNEFPDFDYQTVYFANQYGLRTIELGESEFVDNTLDNQHKMVIKAAWGGGYTNRNNVVINFKVDESLCDNLYFKDTDQPLVPMPASYYTLASDRIAIPKGQIMAGVEVQLTDDFFADEKSISENYVIPLLMTNVQGADSILQGKPVVENPVLTNAGDWSILPQNFVLYAVKYVNPWHGEYLRRGIDHATVAGTSKDIIRHEQFVENDEVVNISTKSMKDNLLTLKTKDESGKDISYTVRLSFAEDGSCTVHSGSQNVVVSGSGKFVSKGEKNSLGGKDRNAIYLDYTVNLTDNNIQLATKDTLVLRTRNVYGGKSLEVVRK
# How the values were obtained:
# Assay in all cases: glycan array binding signal (z-score within array); higher = stronger binding
# Conditions in all cases: glycan notation: IUPAC condensed, linker removed
# [1] = target: Fuc(a1-2)[Gal(a1-3)]Gal(b1-4)GlcNAc(b1-2)Man(a1-3)[Fuc(a1-2)[Gal(a1-3)]Gal(b1-4)GlcNAc(b1-2)Man(a1-6)]Man(b1-4)GlcNAc(b1-4)[Fuc(a1-6)]GlcNAc
# Method in brief: (§1)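 The Consortium for Functional Glycomics database supplied 3228 glycan arrays, of which those lacking an available protein sequence were dropped. The binding signal, a within-array Z-score, was averaged across arrays of the same protein sequence and across linkers. Negative scores can be read as non-binding.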
# [2] = target: Fuc(a1-2)[Gal(a1-3)]Gal(b1-4)GlcNAc(b1-3)GalNAc
# Method in brief: as §1
# [3] = target: Fuc(a1-2)[Gal(a1-3)]Gal(b1-4)GlcNAc(b1-3)[Fuc(a1-2)[Gal(a1-3)]Gal(b1-4)GlcNAc(b1-6)]GalNAc
# Method in brief: as §1
# [4] = target: Fuc(a1-2)[Gal(a1-3)]Gal(b1-4)GlcNAc(b1-6)GalNAc
# Method in brief: as §1
# [5] = target: Fuc(a1-2)[Gal(a1-3)]Gal(b1-4)[Fuc(a1-3)]Glc
# Method in brief: as §1
# [6] = target: Fuc(a1-2)[Gal(a1-3)]Gal(b1-4)[Fuc(a1-3)]GlcNAc
# Method in brief: as §1
# [7] = target: Fuc(a1-2)[Gal(a1-3)]Gal(b1-4)[Fuc(a1-3)]GlcNAc(b1-3)GalNAc
# Method in brief: as §1
# [8] = target: Fuc(a1-2)[Gal(a1-4)]Gal(b1-4)GlcNAc
# Method in brief: as §1
# [9] = target: Fuc(a1-2)[GalNAc(a1-3)]Gal
# Method in brief: as §1
# [10] = target: Fuc(a1-2)[GalNAc(a1-3)]Gal(b1-3)GalNAc(a1-3)[Fuc(a1-2)]Gal(b1-4)GlcNAc
# Method in brief: as §1
# [11] = target: Fuc(a1-2)[GalNAc(a1-3)]Gal(b1-3)GalNAc(b1-3)Gal(a1-4)Gal(b1-4)Glc
# Method in brief: as §1
# [12] = target: Fuc(a1-2)[GalNAc(a1-3)]Gal(b1-3)GlcNAc
# Method in brief: as §1
# [13] = target: Fuc(a1-2)[GalNAc(a1-3)]Gal(b1-3)GlcNAc(b1-2)Man(a1-3)[Fuc(a1-2)[GalNAc(a1-3)]Gal(b1-3)GlcNAc(b1-2)Man(a1-6)]Man(b1-4)GlcNAc(b1-4)GlcNAc
# Method in brief: as §1
# [14] = target: Fuc(a1-2)[GalNAc(a1-3)]Gal(b1-3)GlcNAc(b1-2)Man(a1-3)[Fuc(a1-2)[GalNAc(a1-3)]Gal(b1-3)GlcNAc(b1-2)Man(a1-6)]Man(b1-4)GlcNAc(b1-4)[Fuc(a1-6)]GlcNAc
# Method in brief: as §1
# [15] = target: Fuc(a1-2)[GalNAc(a1-3)]Gal(b1-3)GlcNAc(b1-3)GalNAc
# Method in brief: as §1
# [16] = target: Fuc(a1-2)[GalNAc(a1-3)]Gal(b1-3)GlcNAc(b1-6)GalNAc
# Method in brief: as §1
# [17] = target: Fuc(a1-2)[GalNAc(a1-3)]Gal(b1-4)Glc
# Method in brief: as §1
# [18] = target: Fuc(a1-2)[GalNAc(a1-3)]Gal(b1-4)GlcNAc
# Method in brief: as §1
# [19] = target: Fuc(a1-2)[GalNAc(a1-3)]Gal(b1-4)GlcNAc(b1-2)Man
# Method in brief: as §1
# [20] = target: Fuc(a1-2)[GalNAc(a1-3)]Gal(b1-4)GlcNAc(b1-2)Man(a1-3)[Fuc(a1-2)[GalNAc(a1-3)]Gal(b1-4)GlcNAc(b1-2)Man(a1-6)]Man(b1-4)GlcNAc(b1-4)GlcNAc
# Method in brief: as §1
# [21] = target: Fuc(a1-2)[GalNAc(a1-3)]Gal(b1-4)GlcNAc(b1-2)Man(a1-3)[Fuc(a1-2)[GalNAc(a1-3)]Gal(b1-4)GlcNAc(b1-2)Man(a1-6)]Man(b1-4)GlcNAc(b1-4)[Fuc(a1-6)]GlcNAc
# Method in brief: as §1
# [22] = target: Fuc(a1-2)[GalNAc(a1-3)]Gal(b1-4)GlcNAc(b1-3)Gal(b1-4)GlcNAc
# Method in brief: as §1
# [23] = target: Fuc(a1-2)[GalNAc(a1-3)]Gal(b1-4)GlcNAc(b1-3)Gal(b1-4)GlcNAc(b1-3)Gal(b1-4)GlcNAc
# Method in brief: as §1
# [24] = target: Fuc(a1-2)[GalNAc(a1-3)]Gal(b1-4)GlcNAc(b1-3)GalNAc
# Method in brief: as §1
# [25] = target: Fuc(a1-2)[GalNAc(a1-3)]Gal(b1-4)GlcNAc(b1-3)[Fuc(a1-2)[GalNAc(a1-3)]Gal(b1-4)GlcNAc(b1-6)]GalNAc
# Method in brief: as §1
# [26] = target: Fuc(a1-2)[GalNAc(a1-3)]Gal(b1-4)GlcNAc(b1-6)GalNAc
# Method in brief: as §1
# [27] = target: Fuc(a1-2)[GalNAc(a1-3)]Gal(b1-4)[Fuc(a1-3)]GlcNAc
# Method in brief: as §1
# [28] = target: Fuc(a1-2)[GalNAc(a1-3)]Gal(b1-4)[Fuc(a1-3)]GlcNAc(b1-3)GalNAc
# Method in brief: as §1
# [29] = target: Fuc(a1-2)[GalNAc(a1-4)]Gal(b1-4)GlcNAc
# Method in brief: as §1
# [30] = target: Fuc(a1-2)[GalNAc(b1-3)]Gal
# Method in brief: as §1
binder,measurement,setting,value
B1,glycan array binding signal (z-score),[1],-0.253
same,glycan array binding signal (z-score),[2],-0.46
same,glycan array binding signal (z-score),[3],8.34
same,glycan array binding signal (z-score),[4],-0.001
same,glycan array binding signal (z-score),[5],0.304
same,glycan array binding signal (z-score),[6],-0.083
same,glycan array binding signal (z-score),[7],-0.571
same,glycan array binding signal (z-score),[8],0.359
same,glycan array binding signal (z-score),[9],-0.372
same,glycan array binding signal (z-score),[10],-0.115
same,glycan array binding signal (z-score),[11],-0.468
same,glycan array binding signal (z-score),[12],-0.496
same,glycan array binding signal (z-score),[13],-0.285
same,glycan array binding signal (z-score),[14],-0.136
same,glycan array binding signal (z-score),[15],0.521
same,glycan array binding signal (z-score),[16],-0.18
same,glycan array binding signal (z-score),[17],-0.312
same,glycan array binding signal (z-score),[18],-0.438
same,glycan array binding signal (z-score),[19],-0.499
same,glycan array binding signal (z-score),[20],-0.581
same,glycan array binding signal (z-score),[21],-0.434
same,glycan array binding signal (z-score),[22],-0.622
same,glycan array binding signal (z-score),[23],0.178
same,glycan array binding signal (z-score),[24],-0.594
same,glycan array binding signal (z-score),[25],-0.48
same,glycan array binding signal (z-score),[26],-0.404
same,glycan array binding signal (z-score),[27],0.426
same,glycan array binding signal (z-score),[28],0.187
same,glycan array binding signal (z-score),[29],-0.17
same,glycan array binding signal (z-score),[30],-0.266
